From the supplement of paper PMC11283458
Some of the results follow. Many values rest on one well or one pass, so single values are uncertain.

Columns and labels:
[1] = system: Asph alternative exon (endogenous); experiment: delta PSI of alternative exon relative to 0.4% DMSO control (RT-PCR) (percentage points); higher = more exon inclusion; conditions: concentration: not stated (optimised per compound); Neuro-2a
Method: (§1)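 Reads PSI of the Mef2d reporter microexon and of endogenous mouse neural alternative exons. dPSI is relative to the 0.4% DMSO control, single replicate.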

[2] = system: Mast2 alternative exon (endogenous); experiment: as above; conditions: concentration: not stated (optimised per compound); Neuro-2a
Method: as §1

[3] = system: Trappc9 microexon (endogenous); experiment: as above; conditions: concentration: not stated (optimised per compound); Neuro-2a
Method: as §1

[4] = system: Zdhhc20 alternative exon (endogenous); experiment: as above; conditions: concentration: not stated (optimised per compound); Neuro-2a
Method: as §1

[5] = system: Mef2d microexon dual Nano/Firefly luciferase splicing reporter in Neuro-2a cells; experiment: B-score of Firefly/Nano luminescence ratio, V1 Mef2d microexon reporter (B-score (plate-normalised)); higher = more Mef2d microexon inclusion; conditions: 24 h
[6] = system: Mef2d microexon dual Nano/Firefly luciferase splicing reporter in Neuro-2a cells; experiment: B-score of Nano/Firefly luminescence ratio, V2 Mef2d microexon reporter (B-score (plate-normalised)); higher = more Mef2d microexon inclusion; conditions: 24 h
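Wherever B-score of Nano/Firefly luminescence ratio, V2 Mef2d microexon reporter is given: compounds at 4 µM (PKI library 0.5 µM) on Dox-inducible N2A Flp-In cells with PEST-tagged luciferases, 384-well plates, B-score from per-plate median-polish residual over median absolute residual.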
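Wherever delta PSI of alternative exon relative to 0.4% DMSO control (RT-PCR) is given: exons read include endogenous Mef2d, Mast2, Ergic3 and Trappc9 microexons plus the longer neural-regulated Zdhhc20, Mgrn1 and Asph cassette exons, alongside the reporter microexon.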

| SMILES | delta PSI of alternative exon [1] | delta PSI of alternative exon [2] | delta PSI of alternative exon [3] | delta PSI of alternative exon [4] | B-score [5] | B-score [6] |
| --- | --- | --- | --- | --- | --- | --- |
| N#CC1=C(N)Oc2ccc3ccccc3c2C1c1cccc(F)c1 (centres undefined) | -1.37 | -2.12 | -0.783 | -0.41 | – | – |
| Cc1cc(NC(=O)Nc2cc(Cl)cc(Cl)c2)on1 | 0.906 | 2.53 | -2.12 | -0.324 | – | – |
| O=C(OCc1ccc(Cl)cc1)c1cnc(Sc2cc(C(F)(F)F)cc(C(F)(F)F)c2)nc1C(F)(F)F (4 µM) | – | – | – | – | 7.1 | 3.01 |
| CC(=O)OC1(C(=O)/C=C/c2ccccc2)CCCCC1 | -7.92 | -3.22 | -4.1 | -9.17 | – | – |
| CC(C)(C)c1ccc2cc(C#N)c(C#N)cc2c1 | -5.16 | – | 1.48 | -2.95 | – | – |
| O=[N+]([O-])c1ccc(N2CCCN(C(=S)Nc3ccc(Cl)cc3Cl)CC2)nc1 | 1.24 | – | 0.172 | 6.13 | – | – |
| COc1ccc(C(=O)C=C(C(=O)c2ccccc2)c2ccccc2)cc1CN1CCOCC1 | -5.77 | – | -0.969 | -7.35 | – | – |
| CCCCCCc1ccccc1NC(=O)Nc1cccnc1 | 1.38 | 0.757 | -1.31 | 2.59 | – | – |
| O=C(C=c1[nH]c(=O)c(=Cc2ccccc2O)s1)c1cccs1 | -6.22 | – | -0.208 | -5.98 | – | – |
| Nc1ccc(S(=O)(=O)Nc2cccc(C(F)(F)F)c2)cc1 | 2.52 | – | -1.08 | 4.2 | – | – |
| CC(=O)c1sc(-c2ccccc2)cc1NS(=O)(=O)c1ccc(C)c(Cl)c1 | 0.739 | – | 0.0668 | 0.0018 | – | – |
| Nc1nc(Nc2ccc(S(N)(=O)=O)cc2)nn1C(=S)Nc1c(F)cccc1F [Cdk1/2 Inhibitor III] | 2.81 | -11.3 | 1.83 | 14.5 | – | – |
| O=c1c(Cc2ccccc2Cl)c(-c2ccccc2)oc2ccccc12 | 2.77 | 1.35 | -1.31 | 1.92 | – | – |
